Assay results as given in article PMC4336329 (PLoS ONE, 2015).
About 14,000 (4.5%) of roughly 310,000 compounds showed an effect of 50% or more. Effects have a minus sign here. The list shows a part of the results.

Target: human ether-à-go-go-related gene (hERG) potassium channel (human, UniProt Q12809)
Test: primary screen, population patch clamp on CHO cells stably expressing hERG
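Also: peak tail current of the secondary pulse compared with the same well before compound.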

Chain of human ether-à-go-go-related gene (hERG) potassium channel (Q12809 whole entry, looked up): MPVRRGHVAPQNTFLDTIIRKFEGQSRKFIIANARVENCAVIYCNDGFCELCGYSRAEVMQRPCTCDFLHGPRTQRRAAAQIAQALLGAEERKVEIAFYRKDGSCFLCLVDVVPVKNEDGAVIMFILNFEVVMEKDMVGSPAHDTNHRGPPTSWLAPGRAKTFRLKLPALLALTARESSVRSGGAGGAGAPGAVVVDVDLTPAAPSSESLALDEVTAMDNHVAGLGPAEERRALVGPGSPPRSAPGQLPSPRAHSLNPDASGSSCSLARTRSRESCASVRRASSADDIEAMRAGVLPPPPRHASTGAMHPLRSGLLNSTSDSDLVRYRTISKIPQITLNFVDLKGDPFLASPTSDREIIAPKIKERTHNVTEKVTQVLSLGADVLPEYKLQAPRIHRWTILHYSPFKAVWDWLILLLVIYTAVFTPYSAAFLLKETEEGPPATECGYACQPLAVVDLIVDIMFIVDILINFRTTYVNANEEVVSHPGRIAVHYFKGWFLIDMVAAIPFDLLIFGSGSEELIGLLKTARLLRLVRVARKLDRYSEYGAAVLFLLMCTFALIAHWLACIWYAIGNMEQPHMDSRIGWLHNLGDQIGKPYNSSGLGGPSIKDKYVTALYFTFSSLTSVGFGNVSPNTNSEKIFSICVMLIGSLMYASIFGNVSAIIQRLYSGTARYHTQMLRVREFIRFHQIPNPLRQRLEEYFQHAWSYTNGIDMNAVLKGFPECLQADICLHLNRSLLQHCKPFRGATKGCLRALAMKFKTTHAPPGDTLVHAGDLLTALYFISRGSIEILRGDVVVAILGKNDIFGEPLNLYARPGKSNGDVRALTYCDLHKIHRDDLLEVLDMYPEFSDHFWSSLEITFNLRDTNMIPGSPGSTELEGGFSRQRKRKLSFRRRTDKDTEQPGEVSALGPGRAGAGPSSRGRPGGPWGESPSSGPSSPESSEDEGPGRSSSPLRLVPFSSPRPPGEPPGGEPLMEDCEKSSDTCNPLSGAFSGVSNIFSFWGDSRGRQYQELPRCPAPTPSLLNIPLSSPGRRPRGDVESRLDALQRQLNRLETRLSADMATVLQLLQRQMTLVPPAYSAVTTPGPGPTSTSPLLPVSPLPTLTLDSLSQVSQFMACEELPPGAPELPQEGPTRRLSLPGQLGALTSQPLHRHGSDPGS

| SMILES | hERG current change (%, negative = inhibition) at 10uM |
| --- | --- |
| O=C(N/N=C/c1ccc2cccc(OCc3ccccc3)c2n1)c1ccc(Br)cc1 | -14% |
| CC(=O)CCn1cnc([N+](=O)[O-])n1 | 23% |
| COc1cc(/C=C(/C#N)c2ccccc2)ccc1Oc1ccc([N+](=O)[O-])cn1 | 16.4% |
| N#CC1(N2CCN(C(=O)c3ccccc3)CC2)CCCCC1 | 30.1% |
| CCOC(=O)C1CCN(C(=O)NC23CC4CC(CC(C4)C2)C3)CC1 | -13.7% |
| Cc1[nH]c2ccccc2c1Cc1nnc(SCCC#N)o1 | 5.74% |
| COCCNC(=O)/C(C#N)=C/C(C)=C/c1ccccc1 | 12% |
| O=C(Nc1ccc2c(c1)OCCO2)N1CCN(c2ccc(F)cc2)CC1 | -5.49% |
| COc1ccccc1CNC(=O)C1CCC(CNS(=O)(=O)c2cccs2)CC1 (stereo not drawn) | -27% |
| Cc1ncc([N+](=O)[O-])n1CCOC(N)=O | 15.1% |
| CCCCCN(C(=O)CCC(=O)OCC(=O)N1CCCCC1C)c1c(N)n(CCCC)c(=O)[nH]c1=O (stereo not drawn) | 3.75% |
| O=C(Cc1ccccc1F)NCC(c1ccco1)N1CCCCC1 (stereo not drawn) | 17.7% |
| COc1ccc(OC)c(CN2CCCCCC2)c1.O=C(O)C(=O)O | 15.7% |
| Cc1ccn2c(Nc3ccc4c(c3)OCO4)c(-c3ccc(O)cc3)nc2c1 | -49% |
| O=C(NCc1ccco1)c1ccc(S(=O)(=O)N2CCCCC2)cc1 | 14.2% |
| CC(=O)Nc1ccc(Sc2ncccc2C(=O)Nc2ccc(OC(F)(F)F)cc2)cn1 | -7.23% |
| O=C(NCc1ccc(Cl)cc1)c1ccc(OCC2CCCO2)cc1 (stereo not drawn) | 8.62% |
| CCOC(=O)Cc1c[nH]c(=S)[nH]c1=O | 21.2% |
| CN(Cc1ccon1)Cc1cn(Cc2ccccc2)nc1-c1ccc2c(c1)OCO2 | -19.3% |
| COc1ccc(C(CC(=O)N2CCCC2)c2c(OC)cc(OC)c3c(-c4ccccc4)cc(=O)oc23)cc1 (stereo not drawn) | -5.46% |
| CCc1ccccc1NC(=O)Nn1cnnc1 | 18% |
| Cc1cc(-n2c(C)cc(C(=O)CSc3nc(N)cc(=O)[nH]3)c2C)no1 | -0.0997% |
| COc1cccc(CN2C(=NC(=O)C3CC3)SC3CS(=O)(=O)CC32)c1 (stereo not drawn) | 15.5% |

| SMILES | hERG current change (%, negative = inhibition) at 10uM |
| --- | --- |
| C/C(=N\NC(=O)C1CC1)c1ccc(OC(F)F)cc1 | 9.94% |
| Cc1nn(-c2ccccc2)c2c1/C(=N/O)CC(C)(C)C2 | -18.1% |
| Cc1ccc(-c2nn(-c3cccc(F)c3)cc2CNCCc2ccncc2)o1 | -53.6% |
| CC(=O)Nc1ccc2c(CN3C(=O)NC(C)(c4ccc(C)cc4)C3=O)cc(=O)oc2c1 (stereo not drawn) | 14.3% |
| N#CCOc1ccccc1/C=C/c1nc2ccccc2c(=O)[nH]1 | 11.3% |
| O=C(Nc1ccc2c(c1)OCO2)c1cnn2c1NC(c1ccco1)CC2C(F)(F)F (stereo not drawn) | -4.57% |
| CC(=O)Cc1nsc(NC(=O)c2ccc(-c3ccc(Cl)cc3Cl)o2)n1 | 32.9% |
| Cc1cc(CN(C)C)c(OC(=O)N(C)C)cc1C.Cl | 16.1% |
| CCOC(=O)Cn1c2ccc(OC)cc2c2nc3ccccc3nc21 | -5.21% |
| COC(=O)c1cccc(NCN2C(=O)c3ccccc3C2=O)c1 | 1.11% |
| CC(=O)N1CCN(S(=O)(=O)c2cccc(C(=O)NNC(=O)Cn3nc(C)cc3C)c2)CC1 | 10.1% |
| Cc1cccc(Nc2nc3ccccc3n3nnnc23)c1 | 18.6% |
| COc1cccc(/C=C(\C#N)c2nc3ccc(C)cc3[nH]2)c1OCC(=O)O | 12.4% |
| CCN(CC(=O)NCc1ccc(Cl)cc1)C(=O)c1cc(OC)cc(OC)c1 | -48.4% |
| Cl.Clc1ccccc1CN(Cc1ccco1)Cc1nnnn1C1CCCC1 | 10.1% |
| CC(=O)Nc1ccc(OCC(O)Cn2ccnc2C)cc1 (stereo not drawn) | 14.4% |
| CC(C)(C)Nc1nc(Cl)nc(NCc2ccccc2)n1 | -5.31% |
| CN(CCC1CCOCC1)C(=O)CC1C(=O)NCCN1Cc1c(F)cccc1Cl (stereo not drawn) | 9.8% |
| CC1(C(=O)O)Cc2ccccc2C(=O)O1 (stereo not drawn) | 8.09% |
| O=C1CSC(c2cccnc2)N1c1ccc(Cl)cc1 (stereo not drawn) | 1.64% |
| O=C(c1sc2ccccc2c1Cl)N1CCN(c2ccc(F)cc2)CC1 | -3.54% |
| COC(=O)/C=c1/s/c(=C(/C#N)C(=O)N2CCCCC2)n(-c2ccccc2)c1=O | -3.94% |
